The values that follow come from article PMC4336329 (PLoS ONE, 2015).

In all, about 310,000 compounds went through this assay and about 2,200 (0.71%) showed an effect of 50% or more. Effects have a minus sign here. Some of the results follow.

The target of this assay is human ether-à-go-go-related gene (hERG) potassium channel (human, UniProt Q12809). Kind of assay: primary screen, population patch clamp on CHO cells stably expressing hERG.
human ether-à-go-go-related gene (hERG) potassium channel, sequence (Q12809 whole entry, looked up): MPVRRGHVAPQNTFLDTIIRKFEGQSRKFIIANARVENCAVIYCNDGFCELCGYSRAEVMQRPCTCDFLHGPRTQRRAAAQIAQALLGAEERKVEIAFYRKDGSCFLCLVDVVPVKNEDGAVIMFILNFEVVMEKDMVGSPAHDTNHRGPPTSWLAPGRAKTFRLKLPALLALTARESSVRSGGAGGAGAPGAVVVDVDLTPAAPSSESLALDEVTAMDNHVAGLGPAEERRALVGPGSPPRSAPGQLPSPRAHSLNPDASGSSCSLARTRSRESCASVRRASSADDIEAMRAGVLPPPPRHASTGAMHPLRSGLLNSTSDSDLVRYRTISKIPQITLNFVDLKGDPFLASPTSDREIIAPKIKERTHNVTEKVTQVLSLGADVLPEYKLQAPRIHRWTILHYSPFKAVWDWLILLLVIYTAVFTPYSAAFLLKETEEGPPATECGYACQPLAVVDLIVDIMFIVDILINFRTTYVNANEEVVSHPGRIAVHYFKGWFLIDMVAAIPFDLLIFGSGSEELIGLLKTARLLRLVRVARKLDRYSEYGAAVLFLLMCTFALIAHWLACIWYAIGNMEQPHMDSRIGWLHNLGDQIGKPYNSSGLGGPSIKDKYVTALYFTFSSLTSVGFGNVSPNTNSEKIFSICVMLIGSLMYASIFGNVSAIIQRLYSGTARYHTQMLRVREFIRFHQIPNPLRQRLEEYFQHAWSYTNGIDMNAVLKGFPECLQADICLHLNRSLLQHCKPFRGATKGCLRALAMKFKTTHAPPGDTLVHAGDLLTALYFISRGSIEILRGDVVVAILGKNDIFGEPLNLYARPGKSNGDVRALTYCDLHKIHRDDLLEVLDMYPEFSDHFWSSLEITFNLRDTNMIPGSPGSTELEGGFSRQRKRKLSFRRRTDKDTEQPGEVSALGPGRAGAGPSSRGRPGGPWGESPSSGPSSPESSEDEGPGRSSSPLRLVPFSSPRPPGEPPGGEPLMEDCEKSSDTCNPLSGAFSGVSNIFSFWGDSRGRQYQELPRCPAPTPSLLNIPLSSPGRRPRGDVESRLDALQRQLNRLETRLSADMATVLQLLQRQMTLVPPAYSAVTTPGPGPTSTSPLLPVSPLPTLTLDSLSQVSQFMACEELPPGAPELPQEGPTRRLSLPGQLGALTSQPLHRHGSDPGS
`CCCc1cc(C(=O)N2CCC(n3nccc3NC(=O)c3ccc(OC)cc3)CC2)no1`: the “hERG current change (%, negative = inhibition) at 1uM” value was -3.61%.
As to `COc1cc(C)c(Cl)cc1S(=O)(=O)n1cnc(C)c1`, the “hERG current change (%, negative = inhibition) at 1uM” value is 6.71%.
Consider `NS(=O)(=O)c1ccc(N=Cc2c(O)c3ccccc3oc2=O)cc1`, for which the “hERG current change (%, negative = inhibition) at 1uM” value is 5.55%.
To `Cn1nnnc1SCc1cccc2ccccc12` belongs 21.5%.
With `COc1cc(/C=C/c2ccc3cccc(OC)c3n2)c(O)c([N+](=O)[O-])c1` the figure was 9.37%; with `Cc1[nH]c2ccccc2c1SCCN`, 7.37%; with `CN(c1ccc(Br)cc1)S(=O)(=O)c1ccc2[nH]cc(C(=O)NCCN3CCOCC3)c(=O)c2c1`, -1.61%.
In the case of `CC(=O)N[C@@H](Cc1c[nH]c2ccccc12)C(=O)OCC(=O)NCc1ccc2c(c1)OCO2`, the “hERG current change (%, negative = inhibition) at 1uM” value is reported as 5.97%.
Take `COCCn1c(=NC(=O)c2cc3ccccc3oc2=O)sc2cc(S(N)(=O)=O)ccc21`: the “hERG current change (%, negative = inhibition) at 1uM” value is recorded as 2.57%.
For the compound `CC(C)N(CC(N)=O)c1ncnc2sc(-c3ccccc3)cc12`, the “hERG current change (%, negative = inhibition) at 1uM” value was found to be 7.93%.
`Cc1ccc(S(=O)(=O)c2nc(N3CCOCC3)sc2Cl)cc1`: the “hERG current change (%, negative = inhibition) at 1uM” value was 2.61%.
With `C=CCc1ccccc1OCC(O)CN1CCN(CCO)CC1.Cl` (stereo not shown), the “hERG current change (%, negative = inhibition) at 1uM” value came out at 17.1%.
With `COc1ccc(CN(C)S(=O)(=O)c2nnc(NC(=O)c3cccc(F)c3)s2)cc1OC` the figure was 6.86%; with `COc1ccc(F)cc1S(=O)(=O)N1CCN(C(=O)c2ccco2)CC1`, 14.6%.
Regarding `Cc1ccc(C(=O)CCNc2ccc(Cl)cc2)o1`, the “hERG current change (%, negative = inhibition) at 1uM” value is -0.237%.
As for `CCOC(=O)COn1c(SCC(=O)OCC)nc2ccccc2c1=O`, the “hERG current change (%, negative = inhibition) at 1uM” value is given as 1.27%.
Turning to `Cc1nc2c(-c3ccccc3)cnn2c(N)c1-c1ccccc1`, the “hERG current change (%, negative = inhibition) at 1uM” value is 12.4%.
Turning to `CC1CC(=O)c2cnc(N3CCOCC3)nc2C1` (stereo not shown), the “hERG current change (%, negative = inhibition) at 1uM” value is 2.53%.
With `Cc1ccnc(NCc2ccccc2O)c1` the figure was 14.1%.
Regarding `NN1C(=O)/C(=C\c2ccco2)SC1=S`, the “hERG current change (%, negative = inhibition) at 1uM” value is listed as 6.71%.
On to `Cc1cc(C)c(S(=O)(=O)NCC2CCC(C(=O)NCc3ccccn3)CC2)c(C)c1` (stereo not shown), for which the “hERG current change (%, negative = inhibition) at 1uM” value is -1.46%.
Consider `COc1ccccc1CNS(=O)(=O)c1ccc(Br)s1`, for which the “hERG current change (%, negative = inhibition) at 1uM” value is on record as 8.44%.
Take `CCOc1ccc(NC(=O)CN(C)C(=O)C2CSC3(C)CCC(=O)N23)cc1OCC` (stereo not shown): the “hERG current change (%, negative = inhibition) at 1uM” value is reported as 4.55%.
With `c1ccc(CN2CCN(c3ncnc4nc[nH]c34)CC2)cc1`, the “hERG current change (%, negative = inhibition) at 1uM” value is recorded as 8.17%.
For the compound `NS(=O)(=O)c1cccc(NC(=O)CN2CCCc3ccccc32)c1`, the “hERG current change (%, negative = inhibition) at 1uM” value is given as 11.6%.
With `O=C(/C=C/c1ccc(Cl)cc1)NC1CC2CCC1C2` (stereo not shown), the “hERG current change (%, negative = inhibition) at 1uM” value was -2.01%.
Consider `CN1CCN(C(=O)c2ccc3c(c2)N(Cc2ccccc2F)C(=O)c2ccccc2S3=O)CC1` (stereo not shown), for which the “hERG current change (%, negative = inhibition) at 1uM” value is reported as 13.9%.
As to `O=C(COC(=O)c1ccc[n+]([O-])c1)Nc1c(Br)cc([N+](=O)[O-])cc1Br`, the “hERG current change (%, negative = inhibition) at 1uM” value is recorded as 11.5%.
With `COC(=O)C1CCN(CC(=O)Nc2ccc(C(=O)Nc3ccccc3OC)cc2)CC1` the figure was 5.28%; with `Cc1cc(C(=O)NCCN2C(=O)S/C(=C\c3cccs3)C2=O)ccc1[N+](=O)[O-]`, 2.93%; with `CCOc1ccc(NS(=O)(=O)c2ccc(C(=O)N3CCC3)cc2)cc1`, 8.42%.
As to `CN1CCCN(S(=O)(=O)c2cccc(C(F)(F)F)c2)c2nc3ccccc3nc21.Cl`, the “hERG current change (%, negative = inhibition) at 1uM” value was determined as 7.05%.
Take `Cc1[nH]n(-c2ccc([N+](=O)[O-])cc2)c(=O)c1C=NCCN1CCN(C(=O)c2ccc(F)cc2)CC1`: the “hERG current change (%, negative = inhibition) at 1uM” value is recorded as -81.7%.
Turning to `Cc1ccc(-n2nnnc2CNC(=O)C2CC(=O)N(c3ccc(F)cc3)C2)cc1C` (stereo not shown), the “hERG current change (%, negative = inhibition) at 1uM” value is on record as -9.57%.
With `Brc1ccc(/C=N/Nc2ccccc2)cc1` the figure was 12.6%; with `Cc1onc(-c2ccccc2Cl)c1C(=O)N1CCCCC1`, 15.3%.
As for `COCC(=O)NC1(c2nnnn2CCOC(=O)Nc2ccc(Cl)cc2)CCCCC1`, the “hERG current change (%, negative = inhibition) at 1uM” value is given as 0.725%.
To `CC[n+]1c(/C=C/C=C/N(C(C)=O)c2ccccc2)sc2cc(OC)ccc21.[I-]` belongs 7.77%; to `CC(C)CCn1c(=O)c(C(=O)Nc2ccccc2S(N)(=O)=O)c(O)c2ccccc21`, -5.07%.
With `CC1CC(C)CN(S(=O)(=O)c2ccc3c(c2)oc(=O)n3CC(=O)N(C)Cc2ccccc2)C1` (stereo not shown), the “hERG current change (%, negative = inhibition) at 1uM” value is 8.45%.
With `CC(C)(C)c1[nH]nc2c1C(c1ccc(OC(=O)c3ccco3)cc1)C(C#N)=C(N)O2` (stereo not shown), the “hERG current change (%, negative = inhibition) at 1uM” value was 15.7%.
With `Cc1cc(C)nc(/N=C2\NC(=O)CC(C(=O)O)N2CCc2c[nH]c3ccccc23)n1` (stereo not shown), the “hERG current change (%, negative = inhibition) at 1uM” value turned out to be 9.1%.
On to `CCOC(=O)N1CCN(C(=O)COC(=O)COc2c(C)cc(C)cc2C)CC1`, for which the “hERG current change (%, negative = inhibition) at 1uM” value was determined as 5.89%.
Regarding `O=C(Nc1ccc(Cl)c(C(F)(F)F)c1)NC1CC2CCCC(C1)N2C1CC1` (stereo not shown), the “hERG current change (%, negative = inhibition) at 1uM” value was determined as 3.65%.
With `Cc1csc2nc(CN3CCN(CC(=O)N(C)C)CC3)cc(=O)n12` the figure was 17.3%; with `CC1(C)Cc2cccc(OCC(=O)N3CCN(S(=O)(=O)c4ccc(F)cc4)CC3)c2O1`, 4.38%.
Turning to `Cc1[nH]ncc1-c1nc2ccccc2[nH]1`, the “hERG current change (%, negative = inhibition) at 1uM” value came out at 11.5%.
Regarding `CC(=O)Nc1cccc(C(=O)OCC(=O)N2CCC(c3ccccc3)=N2)c1`, the “hERG current change (%, negative = inhibition) at 1uM” value was -2.66%.
With `CCOc1ccc(Cc2nnc(SCC(=O)Nc3ccc(C(C)=O)cc3)[nH]c2=O)cc1` the figure was 17.5%; with `CC1CC(NNC(=O)c2ccccc2)=Nc2ccccc2N1C` (stereo not shown), 6.85%; with `O=C1C2C3C=CC(C3)C2C(=O)N1c1nc2ccccc2s1` (stereo not shown), 6.86%.
In the case of `O=C(O)CN1C(=O)CSC1=S`, the “hERG current change (%, negative = inhibition) at 1uM” value is on record as 15.4%.
Regarding `CC(=O)N1CCN2C(=O)C1CCCC(=O)c1cc(C(C)C)ccc12` (stereo not shown), the “hERG current change (%, negative = inhibition) at 1uM” value worked out at 19.1%.
As for `CCCCOC(=O)c1ccc(NC(=O)c2nn(C)cc2Br)cc1`, the “hERG current change (%, negative = inhibition) at 1uM” value stood at 13.1%.
To `CCOc1ccccc1C(=O)N1CCN=C1SC` belongs 12%; to `CCOc1ccccc1NC(=O)c1cc(C(=O)Nc2ccccc2OCC)cc(N2C(=O)CCC2=O)c1`, 9.33%.
For the compound `C=CCn1c(SC(C)C(=O)c2c(N)n(C)c(=O)n(C)c2=O)nnc1-c1ccoc1C` (stereo not shown), the “hERG current change (%, negative = inhibition) at 1uM” value came to 10.1%.
Regarding `Cc1cc(C)cc(N(CC(=O)Nc2ccc(C(F)(F)F)cc2)S(=O)(=O)c2c(C)[nH]c(=O)[nH]c2=O)c1`, the “hERG current change (%, negative = inhibition) at 1uM” value is -26.1%.
`CC(=O)Nc1ccc(NC(=O)CC2Nc3cccc4cccc(c34)NC2=O)cc1` (stereo not shown): the “hERG current change (%, negative = inhibition) at 1uM” value amounted to 9.98%.
`O=C(NCc1ccccc1F)C1CCN(C(=O)c2sccc2-n2cccc2)CC1`: the “hERG current change (%, negative = inhibition) at 1uM” value is given as 9.46%.
`CCOc1ccccc1-n1cnc(C#N)c1N`: the “hERG current change (%, negative = inhibition) at 1uM” value was 13.6%.
For `CCOc1ccc(NC(=O)CN(C)C(=O)CCCc2nc3ccccc3c(=O)[nH]2)cc1OCC`, the “hERG current change (%, negative = inhibition) at 1uM” value came out at 15.9%.
In the case of `CCOC(=O)CNC(=O)c1sc2ncnc(N3CCc4ccccc4C3)c2c1C`, the “hERG current change (%, negative = inhibition) at 1uM” value is on record as -23.5%.
To `O=C(NC(=S)Nc1ccc(N2CCOCC2)cc1)c1ccc(Cl)cc1` belongs 11.2%.
Consider `COc1ccc(C(=O)Nc2ccc(Cl)cc2C(=O)NCc2ccco2)cc1OC`, for which the “hERG current change (%, negative = inhibition) at 1uM” value was -4.14%.
As to `O=C(NC(=S)Nc1cccc(CO)c1)c1ccc(-c2ccccc2)cc1`, the “hERG current change (%, negative = inhibition) at 1uM” value is recorded as 9.54%.
In the case of `N#C/C(=C/c1ccc(-c2cc([N+](=O)[O-])ccc2Cl)o1)C(N)=O`, the “hERG current change (%, negative = inhibition) at 1uM” value worked out at 11.7%.
Regarding `Cc1nc([N+](=O)[O-])c(C(=O)O)n1C`, the “hERG current change (%, negative = inhibition) at 1uM” value is listed as 14.5%.
With `COc1cc(C)c(CN2CCSCC2)cc1C` the figure was 10.9%; with `Cc1cc(C)cc(NC(=O)CNC(c2ccccc2)c2ccccc2)c1`, 14.2%; with `CSc1cccc(NC(=S)NCCCO)c1`, -4.89%.
Take `COC(=O)c1sc(NC(=S)NC(=O)c2cccc(C)c2)nc1C`: the “hERG current change (%, negative = inhibition) at 1uM” value stood at 9.67%.
Take `COc1ccc(/C=N/OCC(=O)NC(c2ccccc2)c2ccccc2)cc1OC`: the “hERG current change (%, negative = inhibition) at 1uM” value came out at 9.01%.
Regarding `COCCN1Cc2cccc(C(=O)Nc3cccc(OC)c3)c2C1=O`, the “hERG current change (%, negative = inhibition) at 1uM” value was 6.47%.
As for `CC(=O)N(Cc1ccc(Br)cc1)c1cccc(C)c1C`, the “hERG current change (%, negative = inhibition) at 1uM” value is recorded as 3.8%.
As for `COc1c2ccoc2nc2c(OC)cccc12`, the “hERG current change (%, negative = inhibition) at 1uM” value came to 12.6%.
Regarding `O=C(O)CC(C(=O)O)c1cn(Cc2ccccc2)c2ccccc12` (stereo not shown), the “hERG current change (%, negative = inhibition) at 1uM” value worked out at 14.8%.
With `CS(=O)(=O)N(CC(=O)O)c1ccc2c(c1)OCO2`, the “hERG current change (%, negative = inhibition) at 1uM” value was found to be 4.18%.
In the case of `O=C(NCc1ccc(F)cc1)C1CCN(S(=O)(=O)N2CCC3(CC2)OCCO3)CC1`, the “hERG current change (%, negative = inhibition) at 1uM” value is 15.4%.
For `CC1CC(C)CN(S(=O)(=O)c2ccc(NC(=O)c3ccc(=O)[nH]c3)cc2)C1` (stereo not shown), the “hERG current change (%, negative = inhibition) at 1uM” value is 4.66%.
`O=C(NCCCN1CCc2ccccc2C1)C1CCN(S(=O)(=O)N2CCCC2)CC1`: the “hERG current change (%, negative = inhibition) at 1uM” value is recorded as 4.76%.
With `O=C(CCc1ccccc1)Nc1ccnn1C1CCN(Cc2ncc[nH]2)CC1` the figure was 15.5%; with `COc1nc(NCCN2CCOCC2)nc(Nc2ccc([N+](=O)[O-])cc2)n1`, -16.6%.
Regarding `O=C(Nc1ccc(NC(=O)C2CCCCC2)nc1)c1ccccn1`, the “hERG current change (%, negative = inhibition) at 1uM” value amounted to 4.7%.
In the case of `O=C(c1cccc(S(=O)(=O)NCc2ccccc2)c1)N1CCCC1`, the “hERG current change (%, negative = inhibition) at 1uM” value was 7.8%.
`Cc1ccc(C(O)C(=O)c2ccco2)cc1` (stereo not shown): the “hERG current change (%, negative = inhibition) at 1uM” value came to 10.2%.
Take `CN(C)C(=O)CCC(=O)N1CCCC(C(=O)c2ccc3c4c(cccc24)CC3)C1` (stereo not shown): the “hERG current change (%, negative = inhibition) at 1uM” value is given as -21.1%.
As for `C[C@@H](O)C1NC(=O)[C@H](CCCCN)NC(=O)c2cc([N+](=O)[O-])cc(I)c2NCCC[C@@H](C(N)=O)NC1=O` (stereo partly shown), the “hERG current change (%, negative = inhibition) at 1uM” value was found to be 19.6%.
